Paper PMC3253113, “Presenilin Is the Molecular Target of Acidic γ-Secretase Modulators in Living Cells” (PLoS ONE, 2012)

Molecular target: PSEN1-NTF (Homo sapiens, UniProt P49768)
Assay: Photo-affinity labeling in vitro, N2a-ANPP membrane preparations
Type: binding
Details: N2a-ANPP membranes, 0.25% CHAPSO, 0.5 µM photo-probe, UV, streptavidin purification
Description: Subsequently, cells were UV-irradiated on ice for 30 min at 365 nm and for 30 min at 302 nm. As negative controls, UV irradiation was omitted or cells were incubated with DMSO vehicle or compound AR80, which was structurally identical to AR243 but lacked the biotin moiety. Cells were washed and harvested in PBS and incubated with hypotonic buffer (10 mM Tris pH 7.4, 1x protease inhibitor mix) for 10 min on ice. To prepare cellular membranes, cells were passed 10 times through a 30G needle and centrifuged at 800×g, 10 min, 4°C. The post-nuclear supernatant was centrifuged at 18.000×g, 45 min, 4°C. […] The total protein concentration of the membrane preparations was determined by BCA assay, concentrations and volumes of each sample were adjusted, and 5x RIPA buffer was added to a final concentration of 1x RIPA buffer (150 mM NaCl, 1.0% NP-40, 0.5% sodium deoxycholate, 0.1% SDS, […], pH 8.0). […] Protein concentrations were again determined and adjusted to equal levels prior to the addition of streptavidin magnetic beads (Invitrogen). […] The eluted material was separated on 12% Bis-Tris gels and analyzed by Western blotting. Chemiluminescence was recorded with a LAS 3000 ECL camera system (Fuji Photo Film GmbH, Duesseldorf, Germany) or on CL-XPosure film (Fisher Scientific GmbH, Schwerte, Germany). […]

- Photo-affinity labeling of PSEN1-NTF (Western blotting): bound the N-terminal fragment of PSEN1
SMILES: O=C(O)CC1CCN(C(C#CCCCCOC(=O)CCCC[C@@H]2SC[C@@H]3NC(=O)N[C@@H]32)c2ccc(C3(C(F)(F)F)N=N3)cc2)C(c2ccc(C(F)(F)F)cc2)C1 (stereo partly drawn) [AR243, 2-(1-(7-((5-((3aS,4S,6aR)-2-oxohexahydro-1H-thieno[3,4-d]imidazol-4-yl)pentanoyl)oxy)-1-(4-(3(trifluoromethyl)-3H-diazirin-3-yl)phenyl)hept-2-yn-1-yl)-2-(4(trifluoromethyl)phenyl)piperidin-4-yl)acetic acid]
